# In the supplement of paper PMC4604168 (melanoma cell lines):
# This is one part of the list. Many values rest on one well or one pass, so single values are uncertain.
# System: MeWo
# Experiment: cell count relative to DMSO control; melanoma cells; higher = more viable cells
# Settings: library dose: standard library concentration; 72 h
# 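Also: cells treated in 1,536-well plates, then fixed and DAPI-stained, with nuclei counted from automated high-throughput microscope images.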
row,Compound,cell count [%]
1,"CCCS(=O)(=O)Nc1ccc(F)c(C(=O)c2c[nH]c3ncc(Cl)cc23)c1F + COc1ccc2c(c1)CCC1C2CCC2(C)C(NCCCCCCN3C(=O)C=CC3=O)CCC12 [U73122] (first compound 0.4 µM, partner dose 2 µM)",71.9
2,"CCCS(=O)(=O)Nc1ccc(F)c(C(=O)c2c[nH]c3ncc(Cl)cc23)c1F + C#Cc1cccc(Nc2ncnc3cc(OCCOC)c(OCCOC)cc23)c1 [erlotinib] (first compound 0.4 µM, partner dose 4 µM)",83
3,"CS(=O)(=O)c1ccc(C(=O)Nc2ccc(Cl)c(-c3ccccn3)c2)c(Cl)c1 [vismodegib] + COc1ccc(Cl)c(Nc2nc3ccccc3nc2NS(=O)(=O)c2cccc(NC(=O)C(C)(C)N)c2)c1 [XL147] (first compound 5 µM, partner dose 4 µM)",84.8
4,"CS(=O)(=O)c1ccc(C(=O)Nc2ccc(Cl)c(-c3ccccn3)c2)c(Cl)c1 [vismodegib] + Cn1c(Nc2ccc(C(F)(F)F)cc2)nc2cc(Oc3ccnc(-c4ncc(C(F)(F)F)[nH]4)c3)ccc21 [CHIR265] (first compound 5 µM, partner dose 0.4 µM)",77.6
5,"C=C(c1ccc(C(=O)O)cc1)c1cc2c(cc1C)C(C)(C)CCC2(C)C [Bexarotene] + C=CCn1c(=O)c2cnc(Nc3ccc(N4CCN(C)CC4)cc3)nc2n1-c1cccc(C(C)(C)O)n1 [MK1775] (first compound 10 µM, partner dose 0.1 µM)",79.4
6,"CS(=O)(=O)c1ccc(C(=O)Nc2ccc(Cl)c(-c3ccccn3)c2)c(Cl)c1 [vismodegib] + Oc1cc(-c2nc(-c3ccccc3)[nH]c2-c2ccncc2)ccc1Cl [L779450] (first compound 5 µM, partner dose 1 µM)",74.8
7,"CN(c1ncccc1CNc1nc(Nc2ccc3c(c2)CC(=O)N3)ncc1C(F)(F)F)S(C)(=O)=O + C=C(c1ccc(C(=O)O)cc1)c1cc2c(cc1C)C(C)(C)CCC2(C)C [Bexarotene] (first compound 0.4 µM, partner dose 10 µM)",82.9
8,"CS(=O)(=O)c1ccc(C(=O)Nc2ccc(Cl)c(-c3ccccn3)c2)c(Cl)c1 [vismodegib] + O=C1NC(=O)/C(=C/c2ccc(-c3ccc(F)cc3O)o2)S1 [AS252424] (first compound 5 µM, partner dose 5 µM)",95.4
9,"NC1(c2ccc(-c3nc4ccn5c(=O)[nH]nc5c4cc3-c3ccccc3)cc2)CCC1 + CN(NC(=O)CC(=O)NN(C)C(=S)c1ccccc1)C(=S)c1ccccc1 [STA4783] (first compound 2 µM, partner dose 0.03 µM)",17.6
10,"CS(=O)(=O)c1ccc(C(=O)Nc2ccc(Cl)c(-c3ccccn3)c2)c(Cl)c1 [vismodegib] + NC1(c2ccc(-c3nc4ccn5c(=O)[nH]nc5c4cc3-c3ccccc3)cc2)CCC1 [MK2206] (first compound 5 µM, partner dose 2 µM)",81.1
11,"CN(c1ncccc1CNc1nc(Nc2ccc3c(c2)CC(=O)N3)ncc1C(F)(F)F)S(C)(=O)=O + O=C(CCCCCCC(=O)Nc1ccccc1)NO [vorinostat] (first compound 0.4 µM, partner dose 0.4 µM)",86.1
12,"CS(=O)(=O)c1ccc(C(=O)Nc2ccc(Cl)c(-c3ccccn3)c2)c(Cl)c1 [vismodegib] + Nc1ncn([C@H]2C[C@H](O)[C@@H](CO)O2)c(=O)n1 [decitabine] (first compound 5 µM, partner dose 0.5 µM)",75.9
13,"CN(c1ncccc1CNc1nc(Nc2ccc3c(c2)CC(=O)N3)ncc1C(F)(F)F)S(C)(=O)=O + O=C(Nc1cccc(Cl)c1)Nc1ncc(CCNc2ncnc3ccsc23)s1 [SNS314] (first compound 0.4 µM, partner dose 0.004 µM)",71.6
14,"C=C(c1ccc(C(=O)O)cc1)c1cc2c(cc1C)C(C)(C)CCC2(C)C [Bexarotene] + COc1ccc(-c2ccc3c(N4CCOCC4)nc(N4C[C@@H](C)O[C@@H](C)C4)nc3n2)cc1CO [KU0063794] (first compound 10 µM, partner dose 0.1 µM)",81.2
15,"C=C(c1ccc(C(=O)O)cc1)c1cc2c(cc1C)C(C)(C)CCC2(C)C [Bexarotene] + Cn1cncc1[C@@](N)(c1ccc(Cl)cc1)c1ccc2c(c1)c(-c1cccc(Cl)c1)cc(=O)n2C [tipifarnib] (first compound 10 µM, partner dose 0.05 µM)",88.6
